According to PubChem BioAssay AID1346428 (National Center for Advancing Translational Sciences (NCATS), 2018):
Values joined by “and” are separate entries in the source; they are usually repeats but may differ in a detail not shown here. Identical values can stand only once. Screen size: about 48,000 compounds; about 1,200 (2.5%) were called active. Roughly 2% stayed inconclusive and do not appear here.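 Rule for the calls: active = activation of at least 60% and not above a set upper limit (about 1 call in 100 departs from these limits); inconclusive = activation of 40% to 60%, or above that upper limit; inactive = activation under 40%.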 Some of the results follow.

What follows are molecules tested against Probable G-protein coupled receptor 32 (Homo sapiens) (UniProt O75388) (assay: qHTS for Agonists of Human Resolvin D1 Receptor DRV1). Details: CHO-K1 GPR32 beta-arrestin PathHunter luminescence, 90 min; at 76.9 µM; stronger effect = higher value; zero percent set by DMSO-only wells.
Chain of UniProt O75388 (O75388 whole entry, looked up, the tested form may be a part): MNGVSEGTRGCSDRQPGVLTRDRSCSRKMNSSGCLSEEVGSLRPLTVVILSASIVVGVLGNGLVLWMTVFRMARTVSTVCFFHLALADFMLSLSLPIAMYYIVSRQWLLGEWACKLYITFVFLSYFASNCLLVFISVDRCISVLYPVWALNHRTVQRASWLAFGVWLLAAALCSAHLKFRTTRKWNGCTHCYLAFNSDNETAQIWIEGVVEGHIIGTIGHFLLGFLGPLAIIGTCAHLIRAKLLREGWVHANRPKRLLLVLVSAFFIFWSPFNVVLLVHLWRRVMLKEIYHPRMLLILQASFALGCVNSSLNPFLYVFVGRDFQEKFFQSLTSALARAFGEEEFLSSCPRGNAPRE
Summary of the method: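 Agonism was scored by beta-Gal fragment complementation (chemiluminescent read, 1 h detection at ambient temperature) reporting beta-arrestin binding to GPR32 in engineered CHO-K1 cells. Compound treatment lasted 90 min at 37 C, normalized to a DMSO basal control.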
Note: 0% is about no effect.

activation, inactive:
CCOC(=O)c1cccc(NC(=O)c2cc3cc4ccc(C)cc4nc3s2)c1 0.686%
Cc1cc(C)cc(Nc2nc3c(S(=O)(=O)c4cccc(Cl)c4)nnn3c3ccsc23)c1 -8.99%
CCOC(=O)c1cc(-c2ccc(F)cc2)n(CCC(=O)NC2CCCCC2)c1C -25.8%
CCCCc1oc2ccccc2c1C(=O)c1cc(I)c(OCCN(CC)CC)c(I)c1 34.1% and -24.2%
CCOC(=O)c1cc2c(=O)n3ccccc3nc2n(C)c1=NC(=O)c1cc2ccccc2o1 -7.27%
CC(=O)Nc1ccc(C(=O)CSc2nnc3ccc4ccccc4n23)cc1 -2.94%
O=S(=O)(NCc1ccc(Cl)cc1)c1ccc(N2CCCCS2(=O)=O)cc1 27.5%
CCOc1ccc(NC(=O)NCCN2CCN(c3ccccc3F)CC2)cc1 -18.9%
COc1cccc(NC(=O)c2ccc(-c3nc(COc4ccc(C)cc4)c(C)o3)cc2)c1 -5.08%
Cc1cc(=O)n2nc(N3CCC(C(=O)Nc4ccc(Br)cc4F)CC3)sc2n1 -2.24%
Cc1ccc2c(c1)c1c(c(=O)n(-c3ccccc3C)c(=O)n1CC(=O)NCC1CCCO1)n2C (stereo not given) -55%
Cc1ccc(C)c(NC(=O)CCCN2C(=O)C(c3ccccc3)Oc3cccnc32)c1 (stereo not given) 9.11%
O=C(CNC(=O)c1ccc(Cl)cc1)OCc1cc(=O)n2nc(C3CCCCC3)sc2n1 0.499%
Nc1c(C(=O)Nc2ccc(Br)cc2)sc2nc(-c3ccncc3)ccc12 -20.5%
CCOC(=O)c1cccc(NC(=O)N2CCC(CN3CCCCCC3)CC2)c1 -15.3%
CC(=O)Nc1cccc(NC(=O)CSc2cn(CC(=O)N3CCCCCC3)c3ccccc23)c1 -7.97%
CNC(=O)C1CCC(Cn2c(=O)c3sccc3n(CC(=O)Nc3cc(F)ccc3F)c2=O)CC1 (stereo not given) -12.1%
O=C(c1cn(CCOc2ccc(Cl)cc2)c2ccccc12)C1CCCCC1 10.8%
O=[N+]([O-])c1cc(-c2nc(-c3ccncc3)no2)ccc1NCc1ccccc1 -14.5%
COc1cn(CC(=O)Nc2cc(C)ccc2C)c(CN2CCCCC2)cc1=O -4.11%
O=C(Nc1ccc2oc(-c3cccc(Cl)c3Cl)nc2c1)c1cccc(Br)c1 9.56%
CCN(CC)S(=O)(=O)c1ccc(C(=O)NCCSc2c(-c3ccc(OC)cc3)[nH]c3ccccc23)cc1 -24.8%
COc1ccccc1NC(=O)C1=C(C)Nc2nc(SCc3ccccc3Cl)nn2C1c1ccncc1 (stereo not given) -2.16%
CC(=O)c1c(C)oc2ccc(N(C(=O)c3ccncc3)S(=O)(=O)c3ccc(C)cc3C)cc12 8.26%
COc1ccc(-c2ccc(=O)n(CC(=O)NCCc3ccccc3)n2)cc1 -2.34%
CCOc1ccc(C(=O)c2cn(CC(=O)Nc3cc(OC)ccc3OC)c3cc(OC)c(OC)cc3c2=O)cc1 18.5%
COc1ccc(NCc2nnc3n2CCCCC3)c(OC)c1 10.8%
O=C(CN1C(=O)C2(SCC(=O)N2c2ccc(F)cc2)c2ccccc21)NCCc1ccccc1 (stereo not given) -7.76%
CCc1ccc(OCCSc2nc(-c3cccc(C)c3)nc3cc(=O)[nH]n23)cc1 -33.6%
COc1ccc(NC(=O)CCSc2nc(-c3ccco3)cc(C(F)(F)F)n2)cc1OC 25.4%
O=C(O)c1cccnc1 -8.23%
Cc1cc(C)cc(Nc2cc(C(=O)NCc3ccccc3)c3ccccc3n2)c1 -4.3%
Cc1cc(C)c(NC(=O)C(C)n2nnc3sc(-c4ccccc4)cc3c2=O)c(C)c1 (stereo not given) -3.86%
CCOc1cc(CNCCSc2nnnn2-c2ccccc2)ccc1OC -0.577%
O=C(Nc1ccccc1C(F)(F)F)c1cc2ccccn2n1 -8.39%
N[C@@H](COP(=O)(O)O)C(=O)O 1.46% and 3.62%
CCCNC(=O)CN1CCN(c2ncc(NC(=O)c3ccc(Cl)cc3)cc2C(=O)O)CC1 -1.97%
CCOC(=O)c1ccc(-c2ccc(/C=C(\C#N)C(=O)Nc3ccc(C)cc3OC)o2)cc1 -2.37%
COCCNC(=O)Cn1ncc2c(C)n(Cc3ccc(C)cc3)c(C)c2c1=O -7.81%
CCCOc1ccccc1C1Oc2nc(SC)nnc2-c2ccccc2N1C(C)=O (stereo not given) -2.14%
CCCCN1C(=O)C(O)(c2c(C)[nH]c3ccccc23)c2ccccc21 (stereo not given) 34.9%
Cc1cccc(-n2ncc3c(N4CCCCCC4)ncnc32)c1 -6.45%
Cc1ccc(CN(Cc2ccco2)C(=O)c2oc3ccc(C)cc3c2C)cc1 4.24%
CCOc1ccc(C(=O)c2cn(Cc3ccc(F)cc3)c3ccc(F)cc3c2=O)cc1 -14.2%
Cc1ccc(C)c(CNC(=O)c2cnc3sc(N4CCCC4)nn3c2=O)c1 -0.859%
CSc1ccc(C2c3c(oc4ccccc4c3=O)C(=O)N2CCCN2CCOCC2)cc1 (stereo not given) -7.57%
CC(C)(C)C(=O)OC1=CN(Cc2ccccc2)S(=O)(=O)c2ccccc21 -14.6%
CCc1ccc(NC(=O)CSc2nc3ncccc3[nH]2)cc1 11.7%
O=S(=O)(c1ccccc1)c1nc(-c2ccc(F)cc2)oc1N1CCCCCC1 0.494%
Cc1cccc(N(C)C(=S)Oc2ccc3ccccc3c2)c1 -13.1%
CCOc1ccc(/C=C/C(=O)Nc2sc3c(c2C(=O)OC)CCC3)cc1 11.8%
COc1cccc(NC(=O)c2c(C(=O)Nc3ccccc3)sc3nc(C)cc(=O)n23)c1 -26%
COc1cc2c(=O)n(CCC(=O)NCC3CCCO3)c(=O)n(CC(=O)Nc3ccc(F)cc3)c2cc1OC (stereo not given) -5.09%
CCc1ccc(-n2c(CCC(=O)O)ccc2-c2ccc(F)cc2)cc1 -0.879%
COc1ccc(S(=O)(=O)N(CC(=O)Nc2cccnc2)c2ccc(C)cc2)cc1OC -6.3%
Cc1ccc(O)c(NC(=O)CCS(=O)(=O)c2nc(-c3ccc4c(c3)OCO4)cc(C(F)(F)F)n2)c1 -25.7%
CCc1ccc(CNC(=O)CCn2c(=O)c3cccn3c3ccc(F)cc32)cc1 -20.6%
Cc1ccc(-n2nnc(-c3nsc(NC(=O)c4ccc(C)c(C)c4)n3)c2C)cc1 23.6%
O=c1[nH]c(=O)n([C@H]2C[C@H](O)[C@@H](CO)O2)cc1I -0.0054%
O=C(Nc1ccc(F)c(F)c1)C1CCCN1S(=O)(=O)c1cccc2nsnc12 (stereo not given) -6.68%
CCOc1ccccc1NC(=O)COc1ccc(S(=O)(=O)NC2CCCCC2)cc1 4.64%
CCOc1ccccc1CNC(=O)c1cc(-c2ccc(C)c(C)c2)nc2ccccc12 -14.3%
CCCS(=O)(=O)N1CCC(n2c(C(F)(F)F)nc3cccnc32)CC1 -3.95%
Cc1ccc(CNC(=O)C(=O)NCC(c2cccnc2)N2CCN(c3ccccc3F)CC2)cc1 (stereo not given) 1.07%
Cc1ccsc1CN(C(=O)c1oc2ccccc2c1C)C1CCS(=O)(=O)C1 (stereo not given) -19.8%
CCCCN(CCN(CCCC)C(=O)N1CCOCC1)C(=O)N1CCOCC1 4.34%
CC(C)Oc1ccc(CNC(=O)C2CCN(c3nc4ccccc4n(C)c3=O)CC2)cc1 12.5%
CCn1c(=O)c2sccc2n2c(CCC(=O)Nc3ccc(OC)c(Cl)c3)nnc12 20.4%
Cc1ccc(C(=O)Nc2nc(-c3ccccc3)ns2)cc1 41.1%
Cc1oc2ncn(C)c(=O)c2c1C(=O)NCCCN(Cc1ccccc1)C(C)C -11.3%
Cc1ccc(NC(=O)Cn2nnc(C(=O)NCCc3ccccc3)c2N)cc1C 1.27%
CS(=O)(=O)N1CCc2cc(C(=O)Nc3cccc(F)c3)ccc21 2.49%
COc1ccccc1CC(=O)Nc1ccc2nc(N3CCC(C)CC3)cc(C)c2c1 6.88%
Cc1ccc(C)c(Cn2c3ccccc3c3cnn(CC(=O)NC(C)c4ccccc4)c(=O)c32)c1 (stereo not given) -0.348%
CCOc1ccc(C2C(C(=O)Nc3ccc(Cl)cc3)=C(C)Nc3nc(C(F)(F)F)nn32)cc1 (stereo not given) -10.3%
COc1ccc(OC)c(S(=O)(=O)N2CC=C(c3c(C)n(CC(=O)N4CCCC4)c4ccccc34)CC2)c1 -6.77%
O=S(=O)(c1ccc(Cl)cc1)c1nnn2c1nc(N1CCCCC1)c1sccc12 -13.6%
Cc1ccccc1NC(=O)CN(c1ccc(Cl)cc1Cl)S(=O)(=O)c1ccccc1 -32.3%
Fc1ccccc1-n1ncc2c1ncn1nc(Cc3ccccc3)nc21 -8.13%
Cc1ccc2c(c1)-c1c(c(C(=O)N3CCN(c4cc(Cl)ccc4C)CC3)nn1C)CS2 -19.9%
CC(CNC(=O)CCS(=O)(=O)c1ccc2c(c1)oc(=O)n2C)c1ccccc1 (stereo not given) 7.6%
Cc1cccc(NC(=O)N2CCC(CN3CCOCC3)CC2)c1C -6.27%
COc1ccc(-c2nc3sc(CCNC(=O)c4ccccc4C)c(C)n3n2)cc1 45.1%
Cc1cn(C)c(CC(=O)N2CCN(c3ccccc3F)CC2)c1C(=O)O -2.65%
O=S(=O)(NCc1ccccc1Cl)c1ccc(N2CCCCS2(=O)=O)cc1 -18.8%
